In all, about 110,000 compounds were measured (“z-score”: median about -0.1, highest 2% from about 2 on). The list shows a part of the results. Calls of active or inactive are those of the source.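 Rule for the calls: active = z-score in the third read window above 3 or below -3; inactive = the rest.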
target: Metabotropic glutamate receptor 8 (Rattus norvegicus) (UniProt P70579); assay: mGluR8 Gi/Go-coupled signaling modulation – cell-based, rat, thallium flux, HTS, primary screen (AID 488969); conditions: HEK293 rat mGluR8, GIRK (G protein-gated inwardly rectifying potassium channel) thallium flux, FluoZin2; at 10 µM; stronger effect = higher value; submaximal glutamate (EC20) added with thallium
Chain of UniProt P70579 (P70579 whole entry, looked up): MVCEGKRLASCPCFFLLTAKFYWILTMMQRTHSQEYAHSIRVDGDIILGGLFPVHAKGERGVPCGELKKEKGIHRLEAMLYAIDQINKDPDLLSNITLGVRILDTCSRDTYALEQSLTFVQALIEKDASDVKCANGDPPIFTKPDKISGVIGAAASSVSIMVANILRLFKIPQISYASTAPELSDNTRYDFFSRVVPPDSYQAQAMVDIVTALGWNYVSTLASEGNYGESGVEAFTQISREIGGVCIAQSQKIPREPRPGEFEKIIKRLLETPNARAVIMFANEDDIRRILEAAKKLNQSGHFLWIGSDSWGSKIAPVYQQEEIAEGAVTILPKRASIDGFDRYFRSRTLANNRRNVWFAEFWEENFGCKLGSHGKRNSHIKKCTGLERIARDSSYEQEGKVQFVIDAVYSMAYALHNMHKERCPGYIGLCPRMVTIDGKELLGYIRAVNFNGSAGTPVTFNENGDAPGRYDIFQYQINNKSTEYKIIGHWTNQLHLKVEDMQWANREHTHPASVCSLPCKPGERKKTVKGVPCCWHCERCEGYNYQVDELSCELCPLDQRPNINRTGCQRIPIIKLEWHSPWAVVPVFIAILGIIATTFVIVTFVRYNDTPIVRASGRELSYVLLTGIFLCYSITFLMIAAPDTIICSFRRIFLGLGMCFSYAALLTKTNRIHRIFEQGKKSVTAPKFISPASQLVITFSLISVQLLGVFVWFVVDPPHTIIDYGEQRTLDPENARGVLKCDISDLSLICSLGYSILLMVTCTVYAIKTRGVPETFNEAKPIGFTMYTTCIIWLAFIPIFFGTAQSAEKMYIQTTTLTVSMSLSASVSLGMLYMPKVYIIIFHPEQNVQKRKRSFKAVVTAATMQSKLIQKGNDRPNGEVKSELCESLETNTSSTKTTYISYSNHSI

Row | Compound | z-score
1 | CCc1nnc(NC(=O)C(C)C)s1 | -0.12
2 | c1cc(CNCCCN2CCOCC2)ccn1 | -0.0963
3 | COc1cccc(/C=c2\sc3nc(-c4cccs4)nn3c2=O)c1OC | 0.108
4 | Cc1cc(C)c2nc(N3CCC(C(=O)N4CCN(C(=O)c5ccco5)CC4)CC3)sc2c1 | -0.252
5 | Cn1c(CSc2nc3ccccc3s2)n[nH]c1=S | 1.41
6 | CS(=O)(=O)Nc1ccc(C(=O)NC2CCCC2)cc1 | -0.00695
7 | CCN(CC)S(=O)(=O)c1ccc(NC(=O)Nc2cccc(C(F)(F)F)c2)cc1 | -0.977
8 | O=C(NNc1ncc(C(F)(F)F)cc1Cl)c1c(Cl)cccc1Cl | 0.951
9 | COc1cccc(Cn2c(C3CC3)nc3ccc(NC(=O)c4ccco4)cc3c2=O)c1 | -0.429
10 | CCC1(C)CC(c2nc(-c3ccc(OC)cc3)cs2)CCS1 (stereo not drawn) | -0.645
11 | Cc1cc(C)nc(SC(C)C(=O)O)n1 (stereo not drawn) | -0.55
12 | Cc1ccc(S(=O)(=O)N2CCN(C)CC2)cc1-c1nnc2c3ccccc3c(C)nn12 | active: 9.27
13 | Cc1ccc(C)c(CN2CCCN(C(=O)Cn3ncc4c3-c3ccccc3OC4)C2)c1 | 1.33
14 | COCCNC(=O)Cn1cnc2c1c(=O)n(C)c(=O)n2C | 0.12
15 | Cc1ccc(CCNC(=O)C2CCN(S(=O)(=O)N3CCC4(CC3)OCCO4)CC2)cc1 | 0.0322
16 | COc1ccc(OCC(=O)Nc2ccc(S(=O)(=O)N3CCCCCC3)cc2)cc1 | 0.0788
17 | Cc1ccccc1-n1c(CSC(=N)N)nc2ccccc2c1=O | -0.178
18 | Cc1c(Br)c([N+](=O)[O-])nn1CCCC(=O)Nc1sc2c(c1C(N)=O)CCC(C)C2 (stereo not drawn) | -0.142
19 | Cc1c(C(=O)NCc2ccccc2)oc2c1C(=O)CCC2 | 0.368
20 | Cc1ccc(NC(=O)CN(C)C(=O)CSc2n[nH]c(N)n2)cc1 | -0.342
21 | CC(=O)C1=C(O)C(=O)N(CC#N)C1c1cccs1 (stereo not drawn) | -0.0406
22 | COc1ccc(C(=O)NNS(=O)(=O)c2ccccc2)cc1 | 0.128

Row | Compound | z-score
23 | CCC1(C)Cc2ccccc2C(Nc2c(C)n(C)n(-c3ccccc3)c2=O)=N1 (stereo not drawn) | 1.7
24 | Cc1cc(C)nc(NS(=O)(=O)c2ccc(N3C(=O)c4ccccc4C3=O)cc2)n1 | -0.334
25 | COc1ccc(NC(=O)c2c(-c3ccccc3)noc2C)c(OC)c1 | -1.36
26 | CC(=O)Nc1c(Br)cc(N2C(=O)CCC2=O)cc1Br | -0.17
27 | O=C(O)CSC1CC(=O)N(c2ccc(Cl)c(Cl)c2)C1=O (stereo not drawn) | 0.483
28 | CCCCSc1nc(N)c(C#N)c(-c2cccs2)c1C#N | -0.0123
29 | CCC(C)[C@H](N)c1nnc(SCc2cccc(F)c2)o1 (stereo partly drawn) | -0.133
30 | CCNC(=O)n1nccc1C(C)Oc1ccccc1 (stereo not drawn) | -0.015
31 | O=C(O)c1c(Cl)c(Cl)c(Cl)c(Cl)c1C(=O)N1CCCC1 | -0.0252
32 | Cn1c(=O)[nH]c(=O)c2[nH]c(NCCCN3CCOCC3)nc21 | 0.371
33 | COC(=O)c1sc(S(=O)(=O)Nc2ccc3cn[nH]c3c2)c(C(=O)OC)c1C | -0.526
34 | O=C(Nc1ccc2c(c1)OCO2)c1ccc(Br)s1 | -0.265
35 | COCCNC(=O)CN(C)S(=O)(=O)c1ccc2c(c1)OCCO2 | -0.231
36 | C/C(=N\NC(=O)C1COc2ccccc2O1)c1cccs1 (stereo not drawn) | 0.212
37 | CCn1c(=O)cc(SCC(=O)NCc2cccnc2)c2ccccc21 | 0.0104
38 | COc1c2ccoc2nc2c(OC)cccc12 | -0.0825
39 | Cn1c(NC(=O)c2cccc(C(F)(F)F)c2)cc(=O)n(C)c1=O | -0.0357
40 | CN1CCc2nc(SCC(=O)Nc3ccc(F)cc3)c(C#N)cc2C1 | -0.0192
41 | COC(=O)C1=C(O)/C(=C\c2ccc(CNC(=O)C(=O)Nc3ccc(C)cc3)o2)N=C1C | -0.511
42 | O=S(=O)(/C=C/c1ccccc1)N1CCN(c2cccc(Cl)c2)CC1 | -0.286
43 | COc1cc2nc(SCC(=O)NC3CC3)n(CCC3=CCCCC3)c(=O)c2cc1OC | 0.128
44 | O=C(CSc1nnc(Cc2ccccc2)n1-c1cccc(Cl)c1)NNC(=O)Cc1ccccc1 | 1.05

Row | Compound | z-score
45 | Cc1sc(NC(=O)C2C3CCC(O3)C2C(=O)O)c(C(=O)OC(C)C)c1-c1ccc(Cl)cc1 (stereo not drawn) | -0.429
46 | CCOc1ccc(C(=O)Nc2ccccc2CC)cc1[N+](=O)[O-] | -0.15
47 | COc1cc(-c2nc3cnccn3c2Nc2ccc(C)cc2)ccc1O | 0.106
48 | COc1ccccc1NS(=O)(=O)c1ccc(Cl)c(NC(=O)CN2C(=O)c3ccccc3C2=O)c1 | -0.297
49 | COc1ccc(OC)c(NC(=O)CSc2ncnc3c2cnn3-c2ccccc2Cl)c1 | 1.05
50 | CN(C)C(=O)NC1CCCCCCCCCCC1 | -0.137
51 | COc1ccc(-n2c(SCC(N)=O)nnc2-c2cccnc2)cc1 | 1.02
52 | COc1cc(CN2CCN(c3ccccc3F)CC2)c([N+](=O)[O-])cc1OC | -0.0486
53 | c1ccc(-c2nc(CSc3nnnn3-c3ccccc3)cs2)cc1 | -0.317
54 | O=S(=O)(c1cccs1)N1CN(Cc2ccccc2)c2nc3ccccc3nc21 | -0.0816
55 | FC(F)(F)c1cccc(-c2noc(CN3CCOCC3)n2)c1 | -2.25
56 | O=C(c1cc2c(ccc3ccccc32)oc1=O)N1CCN(CCO)CC1 | -1.64
57 | CCOC(=O)N1CCN(C(=O)c2ccc(C)c(S(=O)(=O)Nc3cccc(C)c3C)c2)CC1 | -0.291
58 | COC(=O)c1ccc(N2CCC(c3cc(-c4ccc(OC)cc4)n[nH]3)CC2)c([N+](=O)[O-])c1 | 0.106
59 | COc1ccc(-n2nnc3c(SCC(=O)NCC4CCCO4)ncnc32)cc1 (stereo not drawn) | 0.719
60 | CCNC(=O)COC(=O)C1CCC(=O)N(c2ccc(OC)cc2)C1c1ccc(OC)cc1 (stereo not drawn) | -0.115
61 | COc1ccc(C(=O)c2sc3nc(C)cc(-c4cccs4)c3c2N)cc1OC | -0.587
62 | Cc1ccc(C(=O)NCC2(c3ccccc3)CCCC2)cc1 | -0.567
63 | Cn1cnc2cc(OC(=O)c3ccccc3)ccc21 | -0.787
64 | COc1ccccc1-n1c(SCC(=O)Nc2nnc(C)s2)nc2c(c1=O)SCC2 | -0.363
65 | CCn1c(N2CCN(C(=S)NCCc3ccccc3)CC2)nc2ccccc21 | -0.543
66 | CCOC(=O)C1=C(CN2CCc3ccccc32)NC(=O)NC1c1cccc([N+](=O)[O-])c1 (stereo not drawn) | -0.00369

Row | Compound | z-score
67 | COC(=O)CN1C(=O)C2(C(C#N)=C(N)Oc3n[nH]c(-c4cccs4)c32)c2ccccc21 (stereo not drawn) | 0.805
68 | Cc1ccc(NC(=O)CSc2nnc(CCNC(=O)OC(C)(C)C)o2)c(C)c1 | 2.11
69 | CCc1ccc2[nH]c(=O)c(CN(Cc3ccccc3)Cc3nnnn3Cc3ccco3)cc2c1 | 1.78
70 | Cc1ccc(S(=O)(=O)Nc2cc(C(F)(F)F)ccc2N2CCOCC2)cc1 | 0.266
71 | c1ccc2c(c1)OC(CCCN1CCCCC1)c1ccccc1S2 (stereo not drawn) | 0.834
72 | CN(Cc1nc2ccccc2c(=O)[nH]1)c1ccccc1 | -0.0308
73 | COc1ccc(NC(=O)C23CC4CC(C2)CC(n2cnc(Br)n2)(C4)C3)c(OC)c1 | -0.191
74 | COCc1n[nH]c(=S)n1-c1ccccc1 | 0.288
75 | CCOc1ccc(C(=O)NC(C(=O)NCc2ccccn2)C(C)C)cc1 (stereo not drawn) | 0.598
76 | COc1cc(C2CC(=O)c3c(ccc4ccccc34)N2)ccc1O (stereo not drawn) | 0.11
77 | COc1cc(C2CC(=O)Nc3cc(C)c(C)cc32)cc(OC)c1OC (stereo not drawn) | -0.107
78 | COc1ccc(-c2nn3c(-c4ccco4)nnc3s2)cc1OC | -0.544
79 | O=C(c1cc(-c2ccncc2)nc2ccc(Cl)cc12)N1CCN(C(=O)C2CCCO2)CC1 (stereo not drawn) | -0.0919
80 | Cc1cc(C)nc(-n2nc(C)c3c(=O)[nH]c(C(F)(F)F)nc32)n1 | 0.253
81 | CC(=O)c1cccc(NC(=O)Nc2ccc(C(=O)N3CCCC3)cc2)c1 | -0.503
82 | CCCN(C(=S)Nc1ccccc1)C1CCS(=O)(=O)C1 (stereo not drawn) | -0.365
83 | CCOc1ccc2nc(Nc3nc4ccc(NC(C)=O)cc4s3)sc2c1 | -0.222
84 | COc1ccc2cc(C#N)c(SCC(=O)N3CCCC3)nc2c1 | 0.12
85 | CCNc1ccc(C(=O)OCC(=O)NCc2ccccc2Cl)cc1[N+](=O)[O-] | -0.612
86 | Cc1ccc(NC(=O)CCC(=O)NNC(=O)COc2ccccc2)c(C)c1 | -0.385
87 | CCCCNc1c([N+](=O)[O-])cc(C(=O)O)cc1[N+](=O)[O-] | -0.18
88 | O=c1[nH]c(N2CCN(c3ccccc3)CC2)nc2c1CCCC2 | -0.323

Row | Compound | z-score
89 | Cc1cccc2cc(CN(Cc3ccc(F)cc3)C(=O)C(F)(F)F)c3nnnn3c12 | -0.681
90 | O=C(O)c1ccc(-n2nc(C(F)(F)F)c3c2-c2ccoc2CC3)cc1 | -0.736
91 | CCS(=O)(=O)N1CCN(C(=O)c2cccnc2)CC1 | -0.101
92 | COc1ccccc1NS(=O)(=O)c1cccs1 | -0.598
93 | Cc1ccccc1N1OC2C(=O)N(c3ccc(F)cc3)C(=O)C2C1c1ccccn1 (stereo not drawn) | 0.411
94 | O=C(OCc1nnc(-c2ccccc2)o1)C1=COCCO1 | -0.205
95 | C/C(N)=C(/C#N)C(=O)COC(=O)c1cc(S(=O)(=O)N2CCCCC2)ccc1C | -0.368
96 | CCOc1ccc(C2C(C(=O)OC)=C(C)N=C3SCCC(=O)N32)cc1OCC (stereo not drawn) | 1.75
97 | COC(=O)Nc1sc2c(c1C(=O)NCc1ccco1)CCC2 | -0.656
98 | Cc1nn(C)c(C(=O)Nc2ccc(S(=O)(=O)NC34CC5CC(CC(C5)C3)C4)cc2)c1Br | -0.0632
99 | Cc1ccc(-c2cc(NC(=O)CSc3n[nH]c(N)n3)n(-c3ccccc3)n2)cc1 | 0.0109
100 | Cc1ccc(NC(=O)Cn2cnc3c(cnn3C(C)(C)C)c2=O)cc1 | -0.496
101 | Cc1ccc(C2C3=C(NCCN=C3c3ccccc3)C(=O)N2c2ccccc2)cc1 (stereo not drawn) | active: 3.18
102 | C=C(C)c1cccc(C(C)(C)NC(=O)N2CCN(CC(N)=O)CC2)c1 | -0.369
103 | CC(C)c1cc(NC(=O)C(C)(C)C)cc(C(C)C)c1O | 0.939
104 | CCCCOc1ccc(C(C)NC(=O)C2CCCN(S(=O)(=O)CC)C2)cc1 (stereo not drawn) | 0.227
105 | CN1CCN(C(=O)c2ccc(N3CCCC3=O)cc2)CC1 | -0.0924
106 | CCOc1ccc(CCNC(=O)c2cccc(N3CCCC3=O)c2)cc1OCC | -0.162
107 | Cc1cccc(NC(=O)c2c(C)cc(=O)oc2C)n1 | 0.0459
108 | CCn1c(Cc2ccccc2)nnc1SCc1nc2ccccc2c(=O)[nH]1 | 0.0899

— PubChem BioAssay AID488969 (Vanderbilt High Throughput Screening Facility, 2010)
